# Assay results: PubChem BioAssay AID540317 (National Center for Advancing Translational Sciences (NCATS), 2011)
# About 2,200 (0.56%) of roughly 390,000 compounds were called active. This list was built around the results that the source calls inconclusive (neither active nor inactive); the mix of calls is not that of the screen. Calls come from the whole dose curve; as a rule, active = well fitted inhibition curve with a large enough effect; inconclusive = small, poorly fitted or top-dose-only effect; inactive = no such curve, though single readings can be large or run the other way. Where the call is inconclusive, the potency comes from a doubtful curve fit.
# Target: Chromobox protein homolog 1 (Homo sapiens) (UniProt P83916)
# Chain of UniProt P83916 (P83916 whole entry, looked up): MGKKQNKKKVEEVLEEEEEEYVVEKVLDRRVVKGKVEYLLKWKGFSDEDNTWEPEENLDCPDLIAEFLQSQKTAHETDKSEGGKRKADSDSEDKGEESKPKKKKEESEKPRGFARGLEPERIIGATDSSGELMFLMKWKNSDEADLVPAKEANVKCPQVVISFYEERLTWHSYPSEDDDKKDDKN
# Test: HTS for Inhibitors of HP1-beta Chromodomain Interactions with Methylated Histone Tails; note: nearly all actives have a fitted effect of over 70% in size
# Conditions: AlphaScreen HP1-beta / biotin-H3K9me3 peptide binding; series mostly up to 114 µM; activity change, negative = inhibition: at the top concentration
# Summary of the method: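 HP1-beta protein (50 nM final) preincubated 30 min at room temperature with biotinylated H3(1-18)K9me3 peptide (50 nM) in PBS pH 7.4, 0.01% Tween-20, then compound added for 30 min. AlphaScreen streptavidin donor/nickel chelate acceptor beads (10 ug/mL final), 30 min dark, luminescence read.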
# Potency is the fitted concentration of half-maximal effect; tags give direction and shape of the fitted curve.
SMILES,"activity change, negative = inhibition",Potency
COc1ccc(S(=O)(=O)Nc2noc3ccccc23)cc1,inactive: 39.6%,–
Cc1c(C(=O)NCc2ccoc2)oc2ccc3c(c12)C(=O)CC(C)(C)O3,–,"inconclusive: 70.8 µM [inhibitor, partial curve]"
COc1ccc(OC)c(NC(=O)COC(=O)Cc2ccc(-c3ccccc3)cc2)c1,–,"inconclusive: 35.5 µM [inhibitor, single point]"
CSc1nc(C(=O)N2CCCC(Nc3ccc(C)c(C)c3)C2)cs1 (stereo not given),–,"inconclusive: 70.8 µM [inhibitor, partial curve]"
CCOc1cc(/C=C2\NC(=S)N(c3c(C)n(C)n(-c4ccccc4)c3=O)C2=O)ccc1O,–,"inconclusive: 28.2 µM [inhibitor, single point]"
CCN1CCN(C(=S)c2ccc(SC)cc2)CC1,–,"inconclusive: 14.1 µM [inhibitor, partial curve, poor fit]"
O=[N+]([O-])c1cc(CN2CCC(O)CC2)ccc1Cl,–,"inconclusive: 56.2 µM [inhibitor, partial curve, poor fit]"
S=c1[nH]nc(-c2ccco2)n1-c1ccc(Br)cc1,–,"inconclusive: 79.4 µM [inhibitor, single point]"
CCC(NC(=O)Nc1ccc(OC)c(OC)c1)c1c(-n2cccc2)sc2c1CCN(C)C2 (stereo not given),–,"inconclusive: 70.8 µM [inhibitor, partial curve, poor fit]"
COc1cccc(NC(=O)c2ccc3c(c2)N(C)CCS3)c1,–,"inconclusive: 31.6 µM [inhibitor, single point]"
c1coc(-c2nnc3sc(Cc4cccs4)nn23)c1,–,"inconclusive: 31.6 µM [inhibitor, partial curve]"
COc1cc(NC(=O)c2cnc(N)o2)cc(C(=O)Nc2cccc(C(F)(F)F)c2)c1,inactive: 7.6%,–
Cc1cc(C)n(-c2cc(O)c(-n3nc(C)cc3C)cc2O)n1,–,"inconclusive: 70.8 µM [inhibitor, partial curve]"
Cc1ccnc(NS(=O)(=O)c2ccc(N3C(=O)c4c(Cl)c(Cl)c(Cl)c(Cl)c4C3=O)cc2)n1,–,"inconclusive: 89.1 µM [inhibitor, single point]"
O=C(OCC(=O)N1CCN(C(=O)c2ccco2)CC1)c1cccc(S(=O)(=O)N2CCc3ccccc32)c1,–,"inconclusive: 79.4 µM [inhibitor, partial curve, poor fit]"
Cc1ccc(CN(Cc2ccccc2)C(=S)NCC(=O)NCc2cccnc2)o1,inactive: 1.41%,–
O=C(C1CCCN(Cc2cccc(Cl)c2)C1)N1CCCCC1 (stereo not given),–,"inconclusive: 35.5 µM [inhibitor, single point]"
O=C(Nc1cccc(S(=O)(=O)N2CCCC2)c1)c1ccncc1,inactive: 6.42%,–
CN(Nc1cccc(Cl)c1)c1cccc(Cl)c1,inactive: 51.3% [at 57 µM],–
COc1cccc(N=Nc2c(C)[nH]n(-c3ccccc3)c2=O)c1,–,"inconclusive: 2.82 µM [inhibitor, full curve, poor fit]"
CCO[C@@H]1OC(C(=O)NCc2ccccc2)=C[C@H](c2ccc(Br)cc2)[C@H]1CCCO,inactive: 8.81%,–
CCOC(=O)C1CCCN(C(=S)Nc2ccc(Nc3ccccc3)cc2)C1 (stereo not given),–,"inconclusive: 17.8 µM [inhibitor, full curve]"

SMILES,"activity change, negative = inhibition",Potency
Cc1cc(=O)c2cc(C(=O)Nc3ccc(F)cc3)ccc2[nH]1,inactive: 30.4%,–
Cc1nn(-c2ccccc2)c2[nH]c(=O)c(CNc3ccc4c(c3)OCCO4)cc12,inactive: -35.8%,–
Cc1ccc2nc(SCC(=O)N3CCCC3)[nH]c2c1,–,"inconclusive: 31.6 µM [inhibitor, single point]"
CN1C(=O)C(O)(CC(=O)c2cccc(-n3cccc3)c2)c2ccccc21 (stereo not given),–,"inconclusive: 44.7 µM [inhibitor, partial curve]"
O=C(COc1ccc(Br)cc1)N/N=C1/SCC(=O)N1Cc1ccco1,–,"inconclusive: 10 µM [inhibitor, full curve]"
COc1cc(NC(=O)COC(=O)CNC(=O)c2ccc(C)s2)cc(OC)c1,–,"inconclusive: 39.8 µM [inhibitor, single point]"
Cc1ccc(C)c(Nc2c([N+](=O)[O-])cc(C(=O)N3CC(=O)Nc4ccccc43)cc2[N+](=O)[O-])c1,–,"inconclusive: 17.8 µM [inhibitor, partial curve, poor fit]"
O=C1C(NS(=O)(=O)c2cccs2)=C(N2CCOCC2)C(=O)c2ccccc21,–,"inconclusive: 50.1 µM [inhibitor, partial curve]"
CCC(C)c1ccc(-n2c(=O)c3ccccc3n3c(=S)[nH]nc23)cc1 (stereo not given),inactive: -30.2%,–
O=C(CN(C1CCCCC1)S(=O)(=O)c1ccc(F)cc1)NCC1CCCO1 (stereo not given),–,"inconclusive: 28.2 µM [inhibitor, partial curve, poor fit]"
COc1ccc(CNCc2ccc3c(c2)OCO3)c(OC)c1OC,–,"inconclusive: 70.8 µM [inhibitor, single point]"
Cc1ccc(-n2cc(CN(C)Cc3nccn3C)c(-c3ccc(F)cc3)n2)cc1,–,"inconclusive: 20 µM [inhibitor, full curve]"
COc1ccc(-c2csc3ncnc(N4CCN(c5ccccc5[N+](=O)[O-])CC4)c23)cc1,–,"inconclusive: 15.8 µM [inhibitor, full curve]"
CCN(C(=O)COC(=O)c1cc2c(s1)CCCCC2)C1CCS(=O)(=O)C1 (stereo not given),inactive: 41.7%,–
Cc1c([N+](=O)[O-])cnc(Sc2ccccc2)c1[N+](=O)[O-],–,"inconclusive: 20 µM [inhibitor, full curve]"
CCc1ccc(-c2nc(CN3CCC(C(=O)NCCN(CC)c4ccccc4)CC3)c(C)o2)cc1,–,"inconclusive: 15.8 µM [inhibitor, single point]"
CCN(CC)c1ccc(C(=C2C=CC(=[N+](CC)CC)C=C2)c2ccc(N(CC)CC)cc2)cc1,–,active: 2.82 µM
CCc1ccccc1NC(=O)NNS(=O)(=O)c1cc(C)ccc1C,inactive: 20.9%,–
Cc1cc(=O)n2[nH]c(-c3ccco3)nc2n1,inactive: 41.8%,–
CC(=O)N1CCN(CC(O)COc2ccc(Br)cc2)CC1 (stereo not given),–,"inconclusive: 15.8 µM [inhibitor, partial curve, poor fit]"
CCOC(=O)CNC(=O)C(NC(=O)C1CCC(C)CC1)C(C)CC (stereo not given),–,"inconclusive: 39.8 µM [inhibitor, partial curve, poor fit]"
O=[N+]([O-])c1cc(-c2ccc(/C=N\n3cnnc3)o2)cc([N+](=O)[O-])c1,–,"inconclusive: 79.4 µM [inhibitor, single point]"

SMILES,"activity change, negative = inhibition",Potency
CCOc1cc(NC(=S)NCC2CCCO2)c(OCC)cc1NC(=O)c1cccc(C)c1 (stereo not given),–,"inconclusive: 39.8 µM [inhibitor, single point]"
CC(=O)c1ccc(S(=O)(=O)N2CCCC2)cc1,inactive: 6.25%,–
CCOC(=O)C1=C(SCC)c2cc3c(n2C1=O)CCCC3,–,"inconclusive: 1.58 µM [inhibitor, full curve, poor fit]"
COc1ccccc1CCNC(=O)C(=O)NCC1OCCN1S(=O)(=O)c1ccc(OC)c(OC)c1 (stereo not given),inactive: 22%,–
Cn1c(=O)[nH]c(=O)c2[nH]c(CN3CCN(C(=O)c4ccco4)CC3)nc21,inactive: 12%,–
CCOC(=O)c1c(CSc2ccccc2)n(C)c2cc(Br)c(O)c(CN(C)C)c12,–,"inconclusive: 50.1 µM [inhibitor, partial curve]"
Oc1ccc(NCc2ccccc2OCc2ccccc2)cc1,–,"inconclusive: 35.5 µM [inhibitor, partial curve]"
CC(C)(C)c1cc(Br)c(O)c(N=Nc2ccc(S(=O)(=O)N3CCOCC3)cc2)c1,–,"inconclusive: 4.47 µM [inhibitor, full curve]"
COc1cccc(CN2CCSCC2)c1OC,–,"inconclusive: 39.8 µM [inhibitor, partial curve]"
S=C(Nc1ccc(Cl)cc1)c1nc2ccccc2s1,–,"inconclusive: 10 µM [inhibitor, partial curve]"
CCC(C)c1ccc(S(=O)(=O)N2CCN(CC(O)CN3CCOCC3)CC2)cc1 (stereo not given),–,"inconclusive: 14.1 µM [inhibitor, full curve, poor fit]"
CN(C)c1ccc(N=Nc2ccc3ncccc3c2)cc1,–,"inconclusive: 7.94 µM [inhibitor, partial curve, poor fit]"
Cc1nn(-c2ccccc2)c(N2CCCC2)c1/C=N/Nc1ccc(S(N)(=O)=O)cc1[N+](=O)[O-],–,active: 39.8 µM
c1ccc(-c2ccccc2OCCCN2CCOCC2)cc1,–,"inconclusive: 15.8 µM [inhibitor, full curve, poor fit]"
C=CCN(CC=C)CCOc1cccc2ccccc12,–,"inconclusive: 56.2 µM [inhibitor, partial curve, poor fit]"
Oc1c(N=NC(=S)Nc2ccccc2F)c2ccccc2n1Cc1cccc(Cl)c1,–,"inconclusive: 8.91 µM [inhibitor, full curve]"
Cc1ccc2c(c1)C(=C(C#N)C#N)C(=O)N2CCN1CCCCC1,–,"inconclusive: 39.8 µM [inhibitor, partial curve]"
CCOc1cc(/C=C2\C(=O)N(c3cccc(C(F)(F)F)c3)C(=O)c3ccccc32)ccc1O,–,"inconclusive: 35.5 µM [inhibitor, partial curve]"
CC1CCc2c(sc3nc(-c4cc5cc(Br)ccc5oc4=O)[nH]c(=O)c23)C1 (stereo not given),inactive: 31.1%,–
O=C(O)c1cccc2cccc(-c3c4ccc(=O)c(O)c-4oc4c(O)c(O)ccc34)c12,–,"inconclusive: 1.12 µM [inhibitor, full curve, poor fit]"
CC1CCC2C(=O)N(c3ccc(NC4CCCCC4)c([N+](=O)[O-])c3)C(=O)C2C1 (stereo not given),–,"inconclusive: 22.4 µM [inhibitor, full curve]"
